# Experimental data as given in the supplement of paper PMC11283458.
# Some of the results follow. Many values rest on one well or one pass, so single values are uncertain.
# Test system: Mef2d microexon (dual-luciferase reporter)
# Assay: delta PSI of alternative exon relative to 0.4% DMSO control (RT-PCR) (percentage points); higher = more exon inclusion
# Conditions: concentration: not stated (optimised per compound); Neuro-2a
# Procedure: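 Reads PSI of the Mef2d reporter microexon and of endogenous mouse neural alternative exons. dPSI is relative to the 0.4% DMSO control, single replicate.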
# 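Further: exons read include endogenous Mef2d, Mast2, Ergic3 and Trappc9 microexons plus the longer neural-regulated Zdhhc20, Mgrn1 and Asph cassette exons, alongside the reporter microexon.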
row,Structure (SMILES),delta PSI of alternative exon
1,O=C1NC(=O)C(=CC=Cc2ccccc2)C(=O)N1,-2.55
2,CC(=O)OC(C)(C)C=CC(=O)[C@](C)(O)[C@H]1[C@H](O)C[C@@]2(C)[C@@H]3CC=C4[C@@H](CC[C@H](O)C4(C)C)[C@]3(CO)C(=O)C[C@]12C,7.13
3,Cc1n[nH]c2ccc(-c3cncc(OC[C@@H](N)Cc4c[nH]c5ccccc45)c3)cc12,8.85
4,COc1ccc(/C=C/C=C2C(=O)NC(=O)NC2=O)cc1,-2
